From PubChem BioAssay AID1508624 (National Center for Advancing Translational Sciences (NCATS), 2021)
Out of some 48,000 compounds screened, about 120 (0.25%) were called active. Not shown: some 4% with an inconclusive outcome. The call rests on the fitted dose curve; in most records, active means well fitted activation curve with a large enough effect; inconclusive means small, poorly fitted or top-dose-only effect, or another doubt; inactive means no such curve, though single readings can be large or run the other way. The list shows a part of the results.

experiment: Primary qHTS for Identification of Small Molecule Activators of Huntingtin-Antisense Promoter Activity; settings: HEK293 HTT-AS promoter firefly luciferase reporter, 24 h; series mostly up to 57.5 µM; activity change, positive = activation: at the top concentration; further: nearly all actives have a fitted effect of over 55% in size
In short: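 Firefly luciferase signal from promoter-reporter HEK293 cells was scaled between vehicle (0%) and zero RLU (-100%). Compounds were tested at final concentrations of up to 57.5 uM over 24 h at 37 degrees C. PTC124 at 50 uM final served as control inhibitor.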

Activity change, positive = activation, inactive:
COCCn1c(C)cc(O)c(C(c2ccc(F)cc2)N2CCN(c3ccccc3)CC2)c1=O (stereo not given) 8.3%
COc1ccc(CC(=O)NCCS(=O)(=O)N2CCN(c3ccc(F)cc3)CC2)cc1OC -15.8%
O=C(CSc1nc(=O)[nH]c2c1CCCC2)NCc1ccc(F)cc1 -0.815%
N#Cc1ccccc1Cn1cnc2nc3c(cc2c1=O)CCCC3 5.22%
CCc1nc(C)cn1S(=O)(=O)c1ccc(Cl)c(Cl)c1OC -89.3%
CCCOc1ccc(C(=O)Nc2ccc(NC(=O)c3ccccc3)c(C)c2)cc1 -8.36%
Cc1cccc(CC(=O)NCc2nc3cccnc3n2Cc2ccc(F)cc2)c1 -15.7%
CCc1cc(=O)[nH]c(SCc2nc(-c3ccccc3)no2)n1 -31.1%
Cc1nnc2c(N3CCN(c4ccccc4F)CC3)nc3ccc(C(=O)c4ccccc4)cc3n12 -1.22%
Cc1cccc(C(=O)NC2=NC(c3ccc(Cl)cc3)CC(=O)N2)c1 (stereo not given) -12.7%
COc1ccc(NS(=O)(=O)c2ccc3[nH]c4c(c3c2)CCCCC4)cc1 -6%
CC(C)c1ccc2occ(CC(=O)N(Cc3ccc(F)cc3)C3CCS(=O)(=O)C3)c2c1 (stereo not given) -44.5%
COc1ccc(CCNC(=O)c2ccc3c(c2)ncn3-c2ccc(C(C)C)cc2)cc1OC -33.8%
O=C(Nc1ccccc1)N(Cc1cccc(Cl)c1)c1ccccn1 -8.13%
CC(=O)c1ccc(N2CCN(C(=O)Nc3ccc(C(C)C)cc3)CC2)cc1 -58.5%
CCCCN1C[C@H](O)[C@@H](O)[C@H](O)[C@H]1CO -8.49%
Cn1c2ccccc2c2cnn(CC(=O)NCCCN3CCN(c4ccccc4F)CC3)c(=O)c21 -11.4%
COc1ccc(NC(=O)c2ccco2)cc1NC(=O)c1c(OC)cccc1OC -5.52%
COc1ccc(NC(=O)CCc2nnc3n(Cc4ccc(C)cc4)c(=O)c4ccccc4n23)cc1 -16.2%
CCc1ccccc1NC(=O)Cn1ccn(Cc2ccccc2)c(=O)c1=O -15.1%
CC1CCCCN1C(=O)CCS(=O)(=O)c1cc2c(cc1Cl)NC(=O)CO2 (stereo not given) -8.37%
COc1cccc(CNCCCSc2nnnn2C)c1OC 3.48%
CCS(=O)(=O)c1nc(S(=O)(=O)c2ccc(C)cc2)c(NC)s1 -17.8%
Cc1cccc(C(=O)N2CCc3cc(CNS(=O)(=O)c4ccc(F)c(Cl)c4)ccc32)c1 -22.3%
CCC(=O)N1CCc2cc(S(=O)(=O)Nc3cc(C)ccc3OC)ccc21 -23.4%
Cc1ccc(-n2c(SCC(=O)c3ccccc3)nc3c([nH]c4ccccc43)c2=O)cc1 -14.5%
COc1ccc(-c2csc3ncnc(Nc4cc(OC)cc(OC)c4)c23)cc1 -44.9%
c1ccc2c(c1)CCCC2C1=NCCN1 (stereo not given) -1.8%
CC(C)C(=O)Nc1ccc2nc(SCC(=O)N3CCc4ccccc43)sc2c1 -48.4%
COc1ccccc1CC(=O)Nc1ccc2nc(Nc3cccc(Cl)c3)cc(C)c2c1 -31.2%
COc1ccccc1CNC(=O)c1ccc2c(c1)N(Cc1c(F)cccc1Cl)C(=O)CS2 -37.3%
Cc1cc(C)cc(NC(=O)c2cc(S(=O)(=O)N3CCc4ccccc43)cn2C)c1 -27.4%
O=C(Nc1ccc2oc(-c3cccc(F)c3)nc2c1)c1ccc2ccccc2c1 7.23%
CC(C)c1ccc(NC(=O)Cn2cc(S(=O)(=O)Cc3ccccc3Cl)c3ccccc32)cc1 -45.7%
COc1cccc(NC(=O)Cn2c(=O)n(CCCCC(=O)NCc3ccccc3Cl)c(=O)c3ccccc32)c1 -24.6%
CCCCC(Sc1nc2cc3c(cc2c(=O)n1CCCC(=O)NCc1ccc2c(c1)OCO2)OCO3)C(=O)OCC (stereo not given) -14.5%
O=C(CSc1ncc(S(=O)(=O)c2ccc(Br)cc2)c(=O)[nH]1)Nc1ccc2c(c1)OCCO2 -4.75%
CCOc1ccccc1N1CCN(S(=O)(=O)c2ccc(C3CCCCC3)cc2)CC1 16.3%
CC1CCN(C(=O)CSc2nc3ccccc3nc2Cc2ccccc2)CC1 -28.6%
CCOc1ccc(CN2C(=O)c3ccccc3C2C(=O)NCCc2ccc(OC)c(OC)c2)cc1 (stereo not given) -14%
COc1ccccc1NC(=O)C1=C(C)Nc2ncnn2C1c1cccn1C (stereo not given) -5.8%
CCOC(=O)c1c(S(=O)(=O)N2CCC(C(=O)Nc3ccc(F)cc3F)CC2)c(C)n(C)c1C -11.4%
COc1ccc(CNC(=O)Cc2c(C)c3cc4c(C)coc4c(C)c3oc2=O)cc1OC -7.62%
Cc1c(C)n(Cc2ccc(-c3ccccc3C(=O)O)cc2)c2ccc(C(=O)N[C@@H](C)c3ccc([N+](=O)[O-])cc3)cc12 -28.3%
CCOc1ccc(CNS(=O)(=O)c2ccc3c(c2)CCCN3C(C)=O)cc1 -22.9%
Cc1ccc(C)c(NC(=O)C2CCN(c3cc(C)nc4c(-c5ccc(Cl)cc5)c(C)nn34)CC2)c1 1.78%
COc1cccc(NC(=O)Cn2cc(C(=O)c3ccco3)c3ccccc32)c1 -16.5%
COc1ccc(-n2cc(C(=O)Oc3cc(C)cc(C)c3)c3ccccc3c2=O)cc1 -10.8%
COc1cccc(C(=O)Oc2c(Sc3ccc(C)cc3)c(C)nn2C(C)(C)C)c1OC -42.9%
COc1ccc(NC(=O)c2cc(S(=O)(=O)N3CCCC3)ccc2OC)cc1 7.07%
CC(C)Cc1nn2c(=O)cc(COC(=O)c3ccc(NC(=O)C4CCCCC4)cc3)nc2s1 -1.22%
CCOc1ccccc1NC(=O)c1ccc(F)c(S(=O)(=O)N2CCN(c3ccc(F)cc3)CC2)c1 -22.4%
CCOc1ccc(C(=O)NCC(c2cccs2)S(=O)(=O)c2ccccc2)cc1 (stereo not given) -23.6%
COc1ccc(Nc2nc3ccc(Cl)cc3nc2-n2nc(C)cc2C)cc1 -3.31%
Cc1cccc(C)c1NC(=O)c1ccccc1C(=O)O -2.28%
CCOc1ccc(NC(=O)c2cc(C)nc3c2c(C)nn3-c2ccc(C)cc2)cc1 -1.36%
Cc1cccc(C(=O)N2CCc3cc(CNC(=O)CSc4ccccc4)ccc32)c1 -0.26%
CCOc1ccc(C(=O)NCCSc2c(C)[nH]c3ccccc23)cc1OCC -21%
COc1cccc(-n2c(SCc3ccc(F)cc3)nc3c([nH]c4ccccc43)c2=O)c1 -27.1%
COC(=O)c1ccc(NC(=O)CN(C)S(=O)(=O)c2ccc(Br)s2)cc1 -19.6%
COc1ccc(Cn2ccnc2SCC(=O)Nc2nnc(C)s2)cc1 -13.3%
Cc1nn2c(C)c(C(=O)NCc3ccc(OC(C)C)cc3)cnc2c1-c1ccc(F)cc1 -8.66%
CCN(CCCNC(=O)c1nn(-c2ccc(C)cc2)c(=O)c2c1c1ccccc1n2C)c1cccc(C)c1 6.92%
Cc1cccc(NC(=O)CN2C(=O)C(c3ccc(F)cc3)=NC23CCCCCC3)c1 -30.3%
CCn1c(=O)cc(OCC(=O)N2CCN(c3cccc(C)c3C)CC2)c2ccccc21 -0.155%
COc1cccc(CNC(=O)CN2C(=O)COc3ccc(S(=O)(=O)N4CCOCC4)cc32)c1 0.464%
Cc1ccc2c(c1)-c1c(c(C(=O)N3CCN(c4cc(C)ccc4C)CC3)nn1C)CS2 -17.2%
O=C(O)Cn1c(C(=O)Nc2nc(-c3ccccc3Cl)cs2)cc2ccccc21 -3.22%
Cc1ccc(CNC(=O)c2ccc(N3CCCC3)c(NC(=O)Nc3ccc(F)c(Cl)c3)c2)cc1 7.27%
CC(=O)c1c(C)oc2c1cc(NS(=O)(=O)c1ccc(C(C)(C)C)cc1)c1ccccc12 -26.3%
COc1ccc(NC(=O)Cn2c(=O)c3ccccc3n3nncc23)c(OC)c1 -5.11%
Cc1ccc(CNC(=O)C(C)n2nc(C)c3sc4ccccc4c3c2=O)cc1 (stereo not given) -23.6%
COc1cc2c(cc1OC)[C@@H]1CC(=O)[C@@H](CC(C)C)CN1CC2 -1.22%
C[C@](N)(Cc1ccc(O)cc1)C(=O)O -4.34% [at 6 µM, percent change from vehicle, -100% = no light]
Cc1cc(NC(=O)Nc2nnc(N3CCCCCC3)s2)ccc1Br 22.2%
Cc1ccc(-c2nn(-c3ccccc3)c3c2cnc2ccccc23)cc1C -8.8%
CNC(=O)c1c(-c2ccc(F)cc2)oc2cc(N(CCO)S(C)(=O)=O)c(C3CC3)cc12 -36.6%
CC(C)c1ccc(NS(=O)(=O)c2cc(Br)cc3c2N(C(=O)C2CC2)CC3)cc1 -53.4%
COc1ccc(OC)c(-c2noc(N3CCN(c4ccc(Cl)cc4)CC3)n2)c1 -28.5%
Cn1cnc(S(=O)(=O)N2CCCC(C(=O)NCc3ccc(F)cc3)C2)c1 (stereo not given) -6.74%
Cc1ccc(S(=O)(=O)N(CCc2ccccc2)CC(=O)Nc2ccccc2C)cc1 -33.3%
NNC(=O)CP(=O)(c1ccccc1)c1ccccc1 -4.62%
CCOc1ccc(NC(=O)C(=O)NCCc2csc(-c3ccc(C(F)(F)F)cc3)n2)cc1 -4.34%
Cc1ccc(C(=O)N2CCn3c4c(c5cc(C)ccc53)CCCC42)cc1 (stereo not given) -24%
COc1ccc(CCNC(=O)c2ccc3c(c2)N(Cc2ccccc2)CCS3)cc1OC -32.3%
Cc1ccccc1CNC(=O)CSc1nnc(C)c2c(C)n(-c3ccccc3)nc12 -26.1%
COc1ccccc1CNC(=O)c1cc2c(s1)-c1ccc(Cl)cc1SC2 9.18%
O=C(COc1ccc(Cl)cc1)Nc1nnc(S(=O)(=O)N2CCCCCC2)s1 -21.2%
CCOc1cccc(CC(=O)N2CCc3c([nH]c4ccc(OC)cc34)C2c2ccc(F)cc2)c1OCC (stereo not given) -32%
CCCCOc1ccc(C2C(C(=O)Nc3ccccc3OC)=C(C)Nc3nnnn32)cc1OC (stereo not given) 5.5% [at 11.5 µM, percent change from vehicle, -100% = no light]
Cc1ccn2c(Nc3ccc4c(c3)OCCO4)c(-c3ccccc3O)nc2c1 1.26%
Cc1ccc(S(=O)(=O)n2nc(C)c(S(=O)(=O)N3CCCCCC3)c2C)cc1C -8.93%
COc1ccccc1N1CCN(C(CNC(=O)C(=O)NCc2cccnc2)c2cccnc2)CC1 (stereo not given) -29.2%
CCN(CC)CCCNC(=O)CCC(=O)NNc1nc2ccccc2c2nc(C)nn12 -6.63%
Cn1cc(-c2cnn3c(N)c(Br)c([C@H]4CCCNC4)nc23)cn1 -31%
